Variants at the background level are over-represented here.
B1: TPR 5TU (parent)
chain: GGAUCUUCUCGAUCUAACAAAAAAGACAAAUCUGCCACAAAGCUUGAGAGCAUCUUCGGAUGCAGAGGCGGCAGCCUUCGGUGGCGCGAUAGCGCCAACGUUCUCAACUAUGACACGCAAAACGCGUGCUCCGUUGAAUGGAGUUUAUCAUG

Variants of: B1
Experiment: polymerase ribozyme fitness, log enrichment relative to wild type (log ratio); higher = more active; in vitro selection for triplet polymerase activity
How it was run: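 Frozen incubation at −7 °C formed the core of a single, triplicate in vitro selection round applied to PCR-built, transcribed mutant libraries of each subunit of a heterodimeric triplet polymerase ribozyme. Extended constructs were gel-excised, captured with streptavidin beads and amplified by RT-PCR, and input and output libraries were Illumina-sequenced with a filter of ≥10 input reads and ≥1 read per output. Fitness is the logarithm of genotype enrichment relative to wild-type enrichment, with inverse-variance-weighted replicate averaging, and the logarithm is base 2.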

Variant	polymerase ribozyme fitness (log ratio)
U53C G74A C76G C96U A110U	≤ -4.2
A52U G81A C87U A91G A120U U139C A142C A147U	≤ -4.2
U53A G88C C96A A110G	≤ -4.2
A52U U53A C57A G81U G83C C103G G126A	≤ -4.2
U53A A120G	-1.88
A52U C69G A89C C93G C103A A150G	≤ -4.2
U53C U56C C75U C87A G141C	≤ -4.2
A52G C85U	-0.204
A52G C85G	-2.16
A52U U77A G88C A119U	≤ -4.2
U53A G68A C123U U134G	≤ -4.2
U53C G88U A97G A107C C114U C131G	≤ -4.2
A52U A91U	≤ -4.2
A52G U55A C87G	≤ -4.2
A52U G84C C116U U146G	-4.11
U53A G84A	-2.38
U53A G62C C93A C118G G133A	≤ -4.2
A52U C54U C95U C96U C132A	≤ -4.2
A52G G83C C93U	-3.66
A52G G80U C93G	≤ -4.2
U53A G58C C96U U135G	-3.98
U53A G81A C85U G92A	≤ -4.2
U53A G67A U102G A120G	≤ -4.2
U53C A60U U61A A89U U109G U148A A150U	≤ -4.2

Variant	polymerase ribozyme fitness (log ratio)
U53A U55A G62C	-2.35
U53C G68A C85A U101C	≤ -4.2
A52G C76A U134C G140U G141C	≤ -4.2
U53G C69A C99U C118A	≤ -4.2
A52G C85A U90G A107C	≤ -4.2
A52U C96A U134G	≤ -4.2
U53A C123U	-0.0861
A52U G58C U78A A122G	≤ -4.2
U53A G86A	-2.07
U53A C85A A89G A107C G126A C131U	≤ -4.2
U53G C57A C72U A73U C85G A97C	≤ -4.2
A52U C57U G83C	-3.29
U53G U55C U56A C75G G100U C125A G141U	≤ -4.2
U53A U61A C93U A98G G100A C114U U127G A137U A142C	≤ -4.2
U53A A66G C96U C125A	≤ -4.2
U53A G92U A107U G136U	≤ -4.2
U53G C99G G117A G141C	≤ -4.2
A52G U53G G68A C116G U144G	≤ -4.2
U53G C87G A91G	≤ -4.2
A52U U53G C93A G133U	≤ -4.2
A52G U56A G86U G94A C95G	≤ -4.2
A52G G92C	-1.46
U53A C54A C108G G140A	≤ -4.2
U53G U56A C93A G136U	≤ -4.2

Variant	polymerase ribozyme fitness (log ratio)
A52U G92U C105A	-3.93
U53A C93U C108G A147G	≤ -4.2
A52G G58A A97U A98G C132U A138U	≤ -4.2
A52G U56C G94A C108U A137C A138U	≤ -4.2
U53A C85U G88U U90A	≤ -4.2
U53A G62C G84A G136A	-3.58
U53C C76U C93A C105G C118A A120U	≤ -4.2
A52G U53G C85U U90G C93A	≤ -4.2
U53G C54G C96G C114U	≤ -4.2
A52G G94C	-1.32
U53A C85G G86A U101G	≤ -4.2
U53A C63A A66G G67A G84A A97G	≤ -4.2
A52G U102G A110G	≤ -4.2
A52G G80A C105G A107U	≤ -4.2
U53G C87A A120U A142U U146A	≤ -4.2
U53G G83U G86A U104C	≤ -4.2
U53A C79G G94A A106G	≤ -4.2
U53G G80C C95U	≤ -4.2
A52G G92A C114G A119U	≤ -4.2
U53A A73C	-3.99
U53A A73U	-2.21
A52U U53A U104C C129U G140U	≤ -4.2
U53G U61C A120C U139G	≤ -4.2
A52G U55A G59U A60C U82C A107G C108U G152U	≤ -4.2

Variant	polymerase ribozyme fitness (log ratio)
U53A A91U G92A	≤ -4.2
U53A U77C C103G	≤ -4.2
U53G U55A	-1.92
U53G C57A C75G C93A C123A G133U	≤ -4.2
A52G U53A A119U G126C	0.147
A52U G80C G126A G133C	≤ -4.2
U53A C79A U102G U151G	≤ -4.2
U53A A110C	≤ -4.2
A52U C93A	≤ -4.2
A52U U56A C93A C108U	≤ -4.2
A52G C125U	-0.198
A52G G70C U78G C93G G141C	≤ -4.2
U53A C85U A137G A142C	-3.93
A52U C57U U61A A113G G124A A138C A142U	≤ -4.2
A52G G58U	-0.0148
U53A U139C G143U	≤ -4.2
U53A C79A U148A	≤ -4.2
U53A C54A G68U G84A C96U	≤ -4.2
U53G G94U A98C	-2.12
A52G C79A A120G	≤ -4.2
U53A A91U C93U U104G	≤ -4.2
A52G U53A G84A	-0.8
U53C C54G C57A G68A U90G C93G	≤ -4.2
A52U U56A C79G G80A G126A A138G A147C	≤ -4.2

Variant	polymerase ribozyme fitness (log ratio)
U53G C96A C116U C123U G124U U148A	≤ -4.2
U53A C85U G133C	-2.22
U53A G74A G92A C149A	≤ -4.2
U53A C57U A107G A115G	≤ -4.2
U53A A115U	-2.87
U53A G67U C99U A122C	≤ -4.2
A52U U78G G83A C129A	≤ -4.2
U53A G59C U77G A91G U102A U134A	≤ -4.2
U53G C54U C76U U78G C87G A98U	≤ -4.2
A52U A66G A73G C76A C93G	≤ -4.2
A52G G84A C116G	-2.02
U53G A73C G83U G117U	≤ -4.2
U53G G74U G83C U101G	≤ -4.2
A52U C57A G88U C108A U135A	≤ -4.2
A52U C85G G133U U145G	≤ -4.2
A52U C95U	-1.52
U53A C99U	-2.58
U53A C54U U55A C57U U77A A97G A119U	≤ -4.2
U53G G80C C116G A122U G141C	≤ -4.2
U53G G94A G100C A115U	≤ -4.2
U53G A110C	≤ -4.2
A52U C75A G143A	≤ -4.2
A52G U56G G86A C95U A142C	≤ -4.2
A52G C93G G141C	-3.74

Variant	polymerase ribozyme fitness (log ratio)
U53G	-1.68
U53A	-0.874
U53A C72G U77A C93U C103A C116G C125U G143U	≤ -4.2
U53C G86U C96A U146A	-2.73
U53A G88A A110U	≤ -4.2
U53G C76G A120C A142U	≤ -4.2
U53A A91C	≤ -4.2
U53G U55G C93A A137C	≤ -4.2
U53A G74A	≤ -4.2
U53C G58A C99G	-0.95
A52U G86C	≤ -4.2
A52G C96U A110C G133U	≤ -4.2
U53G G62A C95G	≤ -4.2
U53G A97U	-2.68
U53G A97C	-1.81
U53G A97G	-1.44
U53A C75U G88C	≤ -4.2
A52U C54G C93A	≤ -4.2
A52G U78A U101G	≤ -4.2
A52U A64U G68U A73U G92C	≤ -4.2
U53G C57G G59C G84U U90G C149A	≤ -4.2
U53G C95G G128U	≤ -4.2
A52U C87A A97U U127C A142C	≤ -4.2
U53A C85A C95U A98U G141C	≤ -4.2

Variant	polymerase ribozyme fitness (log ratio)
U53A U56A G58A C85U	0.824
A52G C87U G141A U148A	≤ -4.2
A52U C76G	≤ -4.2
U53A U55A G68U U127G	≤ -4.2
A52U C57A C95A A97U	-2.33
A52G G59A C87A C99U A119G	≤ -4.2
U53A U56A G152A	-4
U53A U144A	-1.56
A52G U61G A73G	-2.84
U53A C75U G84C	-2.82
A52G G71A C85G U109C U144C	≤ -4.2
U53A G136A	-0.321
A52U U56A G83C G84A C99G A106U U144A	≤ -4.2
A52U C108A	≤ -4.2
U53A U144C U145G	-1.92
A52G G58A A60C A66U C79U U82A A91C G100C C105G G143U	≤ -4.2
A52U G59A A98G	-1.21
A52U U53A	-1.23
A52U U53A G59A G71A G81U C87U	≤ -4.2
A52G C93U G94C A97C	-3.73
U53A A73G U127G A150C	≤ -4.2
U53G C54A	-2.07
U53A G88U	≤ -4.2
